These results are taken from PubChem BioAssay (NCI).

“And” between values parts separate entries of the source, which are not always exact repeats. Equal entries are not always repeated.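 Briefly, cells in 96-well plates were exposed to five compound concentrations for 48 h, and endpoints were estimated by linear interpolation. GI50 marks 50% less growth. Definition used: TGI = concentration required for complete inhibition of growth.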 Square brackets hold non-standard residues; d marks the D form. Peptide text beside a SMILES is read from it. * marks the point of attachment. Phe(4-NO2) = N[CH](Cc1ccc([N+](=O)[O-])cc1)C(=O)O; Cbz = O=C(OCc1ccccc1)*

This experiment deals with NCI-H322M lung. The experiment can be described thus: inhibition of tumour cell growth, NCI panel, 48 h.
As to `COc1cnc2oc3ccc(O)cc3c2c1-c1ccccc1`, the TGI is above 100 µM. The same measure, in the same setting: the same measure for `NNC(=O)C(=O)N/N=C1\CCCC1C(=O)CCC(=O)Nc1cccc(Cl)c1` (stereo not drawn): above 100 µM.

In turn, `C=C1C(=O)OC2/C=C(\CO)C3OC3C3OC3(C)CC(OC(=O)/C(=C/C)COC(C)=O)C12` (stereo not drawn) displayed a TGI of 37.1 µM. Still for that read-out and setting: the same measure for `CCOC(=O)C1Cc2ccc(C)cc2C1=O` (stereo not drawn): above 100 µM. On to `COc1cccc2c1C(=O)c1c(O)c3c(c(O)c1C2=O)C[C@@](O)(C(=O)CO)C[C@@H]3OC1CC2C(OCN2CN2COC3C(C)OC(O[C@H]4C[C@](O)(C(=O)CO)Cc5c(O)c6c(c(O)c54)C(=O)c4c(OC)cccc4C6=O)CC32)C(C)O1` (stereo partly drawn), for which the GI50 was 0.025 µM and the TGI is 0.0816 µM. For `C1=C(c2ccccc2)NC2=N[C@H]3CCCC[C@@H]3N2C1c1ccccc1` (stereo partly drawn), the TGI is 24.3 µM. Same read-out and setting: in the case of `CCCCCCCCCCCCCCCCNc1nc(=O)n(C2CC(O)C(COP(=O)(O)OC3CC(n4cc(F)c(=O)[nH]c4=O)OC3CO)O2)cc1F` (stereo not drawn) it was 31.3 µM; in that of `COP(=O)(OC)[C@@](O)(c1ccccc1)[C@@H](O)[C@@H](O)c1ccccc1`, above 100 µM. In turn, `O=S(=O)(c1ccccc1)C1(C2(S(=O)(=O)c3ccccc3)CCN=N2)CCN=N1` (stereo not drawn) showed a TGI above 100 µM. Turning to `O=C(NCCc1nccs1)c1cnc2c(S)cccc2c1`, the GI50 was 2.78 µM and the TGI is 13.4 µM. For `O=C(Cn1c(C(=O)/C=C/c2ccc(Cl)c(Cl)c2)nc2ccccc21)c1ccccc1`, the TGI worked out at 51.3 µM.

Regarding `O=C1/C(=C/c2ccc([N+](=O)[O-])s2)Oc2ccc(Br)cc21`, the GI50 was 1.95 µM and the TGI came out at 5.88 µM.

As to `Cc1cc(NS(=O)(=O)c2ccc(NC(=O)c3ccc4nc5ccccc5c(Nc5ccc(S(N)(=O)=O)cc5)c4c3)cc2)no1`, the TGI is above 100 µM.

Turning to `Cc1ccnn1CCc1ccc(Cl)cc1Cl`, the TGI is above 100 µM.

Take `O=C(O)c1cc(-c2ccc3cc(O)c(O)cc3c2)ccc1O`: the TGI was above 12.5 µM. On the same count and under the same terms, in the case of `Clc1nc(NC23CC4CC(CC(C4)C2)C3)nc(NC23CC4CC(CC(C4)C2)C3)n1` it was above 100 µM.

As to `CC1=NN(c2nc(N)nc(CCl)n2)C(C)(C)C1`, the TGI is above 100 µM. Turning to `CC(C)C[C@H](NC(=O)[C@@H](N)Cc1cccc2ccccc12)B(O)O`, the GI50 is 2.18 µM; the TGI is 7.71 µM and 1.23 µM.

`C[C@]12CC/C(=N\OCCN3CCCC3)C=C1CCC1C2CC[C@@]2(C)C1CC[C@]2(C)O` (stereo partly drawn) showed a TGI of 32.4 µM. On the same count and under the same terms, the same measure for `COC(=O)/C=C1\C(=O)Nc2ccc(Br)cc21`: 5 µM.

For `O=C1C2C3C=CC(C2C(=O)N1CN1CCOCC1)C1C2C(=O)N(CN4CCOCC4)C(=O)C2C31` (stereo not drawn), the TGI was above 100 µM. On the same count and under the same terms, in the case of `O=C1C[C@@H]2[C@@H](C=CC23CCCC3)N1O` it was above 100 µM.

Molecule `O=C(OCc1ccccc1)N1N=NC2C3CC(OCc4ccccc4)(OCc4ccccc4)C(O3)C21` (stereo not drawn) returned a TGI above 100 µM. Same read-out and setting: in the case of `CCOC(=O)CCC(NC(=O)OCc1ccccc1)C(=O)NC(CCC(=O)OCC)C(=O)NC(CCC(=O)OCC)C(=O)NC(CCC(=O)OCC)C(=O)NC(CCC(=O)OCC)C(=O)NC(Cc1ccc([N+](=O)[O-])cc1)C(=O)NC(CCC(=O)OCC)C(=O)NC(CCC(=O)OCC)C(=O)NC(CCC(=O)OCC)C(=O)NC(CCC(=O)OCC)C(=O)NC(CCC(=O)OCC)C(=O)OCC` (stereo not drawn) (Cbz-E(OEt)E(OEt)E(OEt)E(OEt)E(OEt)[Phe(4-NO2)]E(OEt)E(OEt)E(OEt)E(OEt)E(OEt)-OEt; configuration not given here) it was above 50 µM; in that of `COC(=O)/C=C1/OC(c2ccccc2)=C(Br)C1=O`, above 100 µM. On the same count and under the same terms, in the case of `CC(=O)CC(=O)Nc1ccc(OS(N)(=O)=O)cc1` it was above 100 µM. Still for that read-out and setting: in the case of `Nc1nc(N)c2ncn(Cc3ccccc3CO)c2n1` it was above 100 µM.

As for `Cc1ccc(-c2csc3ncnc(Nc4cccc(O)c4)c23)cc1`, the GI50 was 19.2 µM and the TGI worked out at 43.3 µM. `COc1cc(C(C)c2cc3c(cc2OCCCCCOc2cc4c(cc2C(C)c2cc(OC)c(OC)c(OC)c2)OCO4)OCO3)cc(OC)c1OC` (stereo not drawn) displayed a TGI above 100 µM. Turning to `O=[N+]([O-])c1cc2c(ccc3ccccc32)o1`, the GI50 was 1.66 µM and the TGI turned out to be 5.67 µM. In turn, `NNC(=O)c1cc(Cl)ccc1NC(=O)C12CC3CC(CC(C3)C1)C2` returned a TGI of 56.8 µM.

Molecule `Cc1ccc(C(=O)c2[nH]c(NCc3ccccc3)c(C(=S)Nc3ccccc3)c2N)cc1` yielded a TGI of 11.4 µM.

On to `O=C1NCC2(CCN(CC3COc4ccccc4O3)CC2)N1c1ccccc1` (stereo not drawn), for which the TGI is above 100 µM. Still for that read-out and setting: the same measure for `Cc1ccc(S(=O)(=O)NC(=O)Nc2ncn[nH]2)cc1`: above 100 µM; for `NC(=S)N/N=C1\CCc2ccccc2C1`: above 100 µM; for `CN1CC[C@@]2(c3cccc(O)c3)CC(=O)/C(=C/c3ccc(Cl)c(Cl)c3)[C@H]1C2`: 14.6 µM. Consider `O=NN(CC(=O)NNc1ccccc1)CC(=O)NNc1ccccc1`, for which the GI50 is above 100 µM and the TGI is above 100 µM. With `CCOC(=O)c1nc2sc(Cl)cn2c1/C=N/N=C(N)N`, the GI50 was 21.2 µM and the TGI was 46.4 µM. `Cc1ncc2c(n1)CCC1=C2OS(=O)(=O)CC1N(C)C` (stereo not drawn) showed a TGI above 100 µM.

Regarding `CSCCCNC(=O)c1csc(-c2csc(CCNC(=O)CNC(=O)OC(C)(C)C)n2)n1`, the TGI was above 100 µM. Turning to `O=C1c2c[n+](Cc3ccccc3)ccc2-c2nc3ccccc3c3ccnc1c23`, the GI50 is 0.516 µM and the TGI was 1.94 µM. The molecule `CCOC(=O)c1sc2c(c1OC(=O)c1ccco1)c(=O)n(-c1ccccc1)c(=S)n2-c1ccccc1` had a TGI above 100 µM. On the same count and under the same terms, the same measure for `CC(C)(CO)CNc1nc(N)nc(Cl)c1C=O`: above 100 µM. On the same count and under the same terms, in the case of `O=C1Sc2sc(=S)sc2SC1c1ccccc1` (stereo not drawn) it was above 100 µM; in that of `O=C1CC2=CCCC2O1` (stereo not drawn), above 100 µM. Still for that read-out and setting: in the case of `Cc1cc(O)c(C(O)c2ccccn2)cc1O` (stereo not drawn) it was above 100 µM; in that of `C=CCN=C1NC(=O)C(CC(=O)Nc2ccc([N+](=O)[O-])cc2[N+](=O)[O-])S1` (stereo not drawn), above 100 µM. As to `Nc1ncnc2c1ncn2C1OC(F)(COS(N)(=O)=O)C(O)C1O` (stereo not drawn), the GI50 is above 100 µM and the TGI was above 100 µM. Turning to `CN(C)/C=N/S(=O)(=O)c1nn2c(C=O)c(-c3ccc(-c4ccccc4)cc3)nc2s1`, the TGI was determined as 23.5 µM.

The molecule `COc1ccc(-c2c(C#N)c(N)nc(Sc3ccccc3N)c2C#N)cc1` came in with a TGI above 100 µM. On the same count and under the same terms, the same measure for `c1ccc(Nc2nnc(-c3ccccc3Nc3ccccc3-c3nnc(Nc4ccccc4)s3)s2)cc1`: above 100 µM. On the same count and under the same terms, the same measure for `O=C1c2ccccc2C(=O)N1CCN(CCN1C(=O)c2ccccc2C1=O)Cc1ccccc1`: above 100 µM; for `C=CCNC(=S)NC=C(C(N)=O)C(N)=O`: above 100 µM; for `c1ccc(CSCCC(SCc2ccccc2)SCc2ccccc2)cc1`: above 10 µM. For `Cc1ccc2c(n1)C(=O)c1cc(C)c(C)cc1C2=O`, the TGI was above 100 µM. As for `CC(C)CC1C(=O)OC(C)(C)OC1=O`, the TGI was above 100 µM. The same measure, in the same setting: the same measure for `O=C1C=CC2(C=C1)O[C@H](CCc1ccccc1)[C@@H](CCc1ccccc1)O2`: above 100 µM; for `COc1ccc(/C=C2\CC3C4CC=C5C[C@@H](N6CCCC6)CC[C@]5(C)C4CC[C@]3(C)[C@H]2O)cc1OC` (stereo partly drawn): 16.7 µM; for `COc1cc2c(cc1OCCCN1CCOCC1)N=C[C@@H]1CCCN1C2=O`: 76.4 µM. For the molecule `O=C(Nc1ccc(Br)cc1)c1cc(Br)ccc1O`, the GI50 was 0.32 µM and 0.563 µM; the TGI is above 23 µM. In the case of `CC(C)(C(=O)N(C(=O)N1CCN(c2ccccc2)CC1)S(=O)(=O)c1ccccc1)c1ccc(Cl)cc1`, the TGI is above 100 µM. On the same count and under the same terms, the same measure for `COc1ccc2c(c1)C1Oc3ccccc3CC1CO2` (stereo not drawn): above 100 µM. Take `CCOC(=O)c1c(C)n(Cc2ccc(Cl)cc2Cl)c2c1cc(O)c1[nH]c(Cc3ccccc3)nc12`: the GI50 is 4.96 µM and the TGI came to 21 µM. Consider `Cc1ccc(C)c(NC(=O)C(=O)C(C2C(C)CC(=O)C2CC(=O)O)[N+](=O)[O-])c1` (stereo not drawn), for which the TGI was above 100 µM. The same measure, in the same setting: the same measure for `CC(=O)/C=C1/C(=O)C(CC(C)C)=C1CC(C)C`: above 100 µM.

For `C=CCn1c(C)nc2cc(Nc3nc(N4CCCC4)nc4nc[nH]c34)ccc21`, the GI50 is above 100 µM and the TGI was above 100 µM. The molecule `COc1cc(C)cc2c1C(=O)C(NC(C)=O)=CC2=O` came in with a TGI above 100 µM.

Consider `COc1cc2c(cc1OCCCN1CCN(CCCOc3cc4c(cc3OC)C(=O)N3C[C@H](F)C[C@H]3C=N4)CC1)N=C[C@@H]1C[C@@H](F)CN1C2=O`, for which the GI50 was 0.348 µM and the TGI was above 49.5 µM.

On to `CCN1C(c2ccccc2)=CC(c2ccccc2)(C(Cl)(Cl)Cl)C=C1c1ccccc1`, for which the TGI was above 100 µM. On to `NC(=O)c1c(NC(=O)c2ccc(C(F)(F)F)cc2Cl)sc2c1CCC(=O)C2`, for which the GI50 is 3.17 µM and the TGI was found to be 26.3 µM. The matching figures for `CC[C@@]1(O)C(=O)OCc2c1cc1n(c2=O)Cc2cc3c(N)c(OC)ccc3nc2-1`: 0.228 µM and 0.939 µM. As for `COC(=O)c1c(C)c2c(c(C)c1O)OC(=O)c1c(C)cc(O)c(C=O)c1O2`, the TGI was above 100 µM. Same read-out and setting: in the case of `COc1ccc(C(=O)c2[nH]c(Nc3cc(C)ccn3)c(C(=S)Nc3ccccc3)c2N)cc1` it was 38.5 µM; in that of `COc1cc(CNc2ccc(C)cc2)cc(OC)c1OC`, above 100 µM; in that of `NC(N)=NS(=O)(=O)c1ccc(NCc2cccc3c(=O)c4ccc(Cl)cc4oc23)cc1`, above 25 µM. `Cc1nc2ccccc2c(/C=C/c2ccc(C(F)(F)F)cc2)c1C(=O)/C=C/c1ccccc1`: the GI50 is 1.49 µM and the TGI turned out to be 2.83 µM.

Turning to `CC(=O)OC1C(C)OC(Oc2c(-c3ccc(O)cc3)oc3cc(O)cc(O)c3c2=O)C(O)C1OC(C)=O` (stereo not drawn), the GI50 is 30.2 µM and the TGI turned out to be 99.8 µM. Molecule `Cc1c2cnccc2c(C)c2c1c1ccccc1n2CCCCCCCl` gave a TGI above 50 µM. `O=C1Nc2ccccc2C1(O)Cc1ccccn1` (stereo not drawn): the TGI was above 100 µM.

Turning to `C=CCC(NCc1ccccc1)c1cn(C(=O)OCC)c2ccccc12` (stereo not drawn), the GI50 was 32.8 µM and the TGI was above 100 µM.

In the case of `O=C(Nc1cccc2[nH]c(C(F)(F)F)nc12)c1ccc(Br)cc1F`, the GI50 was 3.36 µM and the TGI came to 12.9 µM. Molecule `COc1cc2c(c(OC)c1OC)[C@@H]1CCCCC[C@@H]1CCC2=O` displayed a TGI above 100 µM.

Take `COc1cc(Br)c(C=Nc2cccc3ccc(OS(=O)(=O)c4ccc([N+](=O)[O-])cc4)cc23)cc1OC`: the TGI was above 100 µM.
